According to the supplement of paper PMC11417369:
The list shows a part of the results.

Test system: PfHDP1 homeodomain (GST-tagged)
Experiment: gcPBM binding intensity (ln(normalized median fluorescence intensity)); higher = stronger DNA binding
In short: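 Plasmodium falciparum DNA-binding domains carrying a GST tag were expressed in E. coli and applied for 1 h, at about 25 μg on average, to an Agilent 4 × 180k array. The array held primer-extended double-stranded 36-bp intergenic genomic probes together with negative controls, and binding took place in 1× PBS with 1% milk, 0.2 mg/ml BSA, 0.5% salmon testes DNA and 0.03% Triton X-100. An Alexa488 anti-GST antibody detected bound protein, and the array was scanned at 488 nm. Binding intensity is taken as the highest Masliner-normalised natural-log median intensity across replicate spots of either probe orientation.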

Sequence | gcPBM binding intensity (ln)
AATAAATAAGCACATACACACATACATACATACATA [CACACA_site6075] | 6.86
TTGTATTTTTAAATGACACACACATATATATATATA [CACACA_site8481] | 9.18
AAGTTATAAAAATAAAGTACAAAGTAGCTATTTTTT [XGTACX_site3144] | 5.93
ATTAAAACCAATTAAAAAAAATTTATAATGGAAGCA [TGCATGCA_negctrl_site273] | 6.16
GAGATAAAATAAAACACACACATATATATATATAAT [CACACA_site5246] | 6.81
AATGACTAAATTTAAACACACAAGGGGAGTTTACTT [CACACA_site918] | 6.04
TATTATTGTTGTTCATGTACACACTATAATAAAAGC [XGTACX_site8957] | 6.56
TATATATCATTTAAAACACACAAAAAAAAAAGTTAT [CACACA_site6191] | 6.9
ATAAATATAAAAAAATGTACATATAGTAATACATAC [XGTACX_site508] | 6.36
GAAATAAAAAGAAATGCATGTAATTTTTTTTTTTTT [TGCATGCA_site928] | 5.94
ATAAGTATAAGAATCAGTACACAGTTTCTACATACT [XGTACX_site5834] | 6.01
TTGCATTACGAACATACACACAGAATAACTGAAAAC [CACACA_site3025] | 7.06
TTCGATGAATATACAAGTACATATCCTTACGAACTG [XGTACX_site1650] | 5.89
TTTTTATTAAGACATGCATGGAAACGCACTATTTTA [TGCATGCA_site999] | 8.85
AATAAATAAATATATACACACATATATGTCTACATA [CACACA_site3158] | 6.63
TTTATATCATTTCTTAAAAAAAAGGAGGTAATAGAC [TGCATGCA_negctrl_site555] | 7.81
ATACGAAGTACGTACACACACTTATATGTTACTAAA [CACACA_site7812] | 6.52
TATATATGCATTAAATGATGTTCCTGTTTTTTAAAA [CACACA_negctrl_site1378] | 7.08
CACAAAATAAATTAAACACACAACATCATAGATGTA [CACACA_site4619] | 6.17
AATTTTTATTTGTACACACATACATATATATTATAT [CACACA_site993] | 6.88
ATATAATCAGCTTCTCTTTTATGCTAAAAAAAAAAA [CACACA_negctrl_site1310] | 6.07
ATAAATAATATAAATACACACTAAAAAAAATATATA [CACACA_site4456] | 6.84

Sequence | gcPBM binding intensity (ln)
TGTCATCATCTTAAATGTACAAAAAGGAAATATAAA [XGTACX_site1529] | 6.79
TTTTTATTTACACTTTTTATTTATATATTATGTACG [CACACA_negctrl_site158] | 6.79
TTTATATATTTCATAATACACACGAAAAAAAAAAAA [CACACA_site2970] | 6.56
TTAGTTTATTGGTACTGTACTTTTTTTTTCTCCATT [XGTACX_site8618] | 6.57
TTATTTAAAATTTTTATGCGTATATATATAGGAACA [CACACA_negctrl_site388] | 6.87
ATTTTTGAACGGTACAGTACAGAATTTAATTAACCC [XGTACX_site47] | 7.06
TATCATATATGAAGGTGTACGATTTATTATATAAAT [XGTACX_site7010] | 6.52
TTTATTTACTATTAAAGTACTAAATCATATAATTAT [XGTACX_site2580] | 6.06
TGTTTATACATCAGGTGTACGCAAAATAATTGTATG [XGTACX_site206] | 6.69
TTAACACATGCTTGGTCACACACGTATGCATATTTA [CACACA_site2127] | 6.77
TATACATATACATATACACACACACCCATAAATAAA [CACACA_site8372] | 7.36
TATTTGTAATATAACACACACAAAAAAAGACTCGGA [CACACA_site1681] | 6.81
TTTGTCAAATAATATTGTACTAAAAAATTTTGCCTT [XGTACX_site7485] | 6.26
ATACACACAGCCTAAACATGCATATAGAAAAAAGAA [TGCATGCA_site1028] | 7.3
AAGTTACAGAATATCACACATAAATTATCTGTATAT [CACACA_site5116] | 6.23
GTTAAGCAATATATATGTACTTATGGAATAGAAAAA [XGTACX_site3693] | 6.75
TCAATTAATTATTTTTGTACACAAGAATTACTGAAT [XGTACX_site6401] | 6.28
GTGTGATATAATTTTTTTAGAGCTTTATAATATTAT [CACACA_negctrl_site233] | 6.75
CAACCATTTGTAGGTAAACACACATTATTATTAATA [CACACA_site8842] | 6.31
TATGTTGATGATATTACACACCCAATGAGAAAAGGA [CACACA_site7060] | 7.14
ACTACGAATGGTAGAGTGCAGTCTGGAGAAAAGTAC [GTGCAC_site9681] | 7.64
CTTTTTTTTTTTTTTGCGCACTGTTTAAAGGGAAAT [GTGCAC_site9815] | 7.48

Sequence | gcPBM binding intensity (ln)
ATTATCTATCGTTTTTGTACTTACACCTTAATACAA [XGTACX_site7337] | 7.54
ATATATATATAATAAAGTACAAATTCTAAATGATAT [XGTACX_site570] | 8.58
TATCTTATGTCTGAAAGTACAAATTTTTTTCTACTT [XGTACX_site2208] | 5.95
TAATTTAGATATATAAAGAATTAAAGTTAACATTCT [CACACA_negctrl_site726] | 5.82
TTAAGAAAAAAAAAAAGTACACACATATAATATATA [XGTACX_site6268] | 6.59
TTTTTCAGATCCTATATAGTATCATATAAATTCCAT [CACACA_negctrl_site56] | 6.38
AAGATCGCATGAAATGAACACACATAAAAAAAATAT [CACACA_site9353] | 6.83
CGTTGGTATTAAAAGGTGCAATGAAATAATATATTA | 8.16
TAAAATTTATAAACTACACACATATATATAGTAATA [CACACA_site3728] | 6.33
AATGTAACAACTTTTTGTACTTAAGAAATAATAAAT [XGTACX_site3310] | 6.31
TAAAAAATTATATTCACACACATACCCATATATATA [CACACA_site4458] | 6.83
AAATGAGATATAAAATGTACATATTGTAAGTAAACA [XGTACX_site1237] | 6.79
GGGATATATTATTATACACACATATATAAAAGCTTT [CACACA_site2445] | 7
TTAATTATATCAGGACGTACTAATATAAATATATAT [XGTACX_site8909] | 6.45
GTGCAAAATATTTTTACACACAAATTTTTACAACAG [CACACA_site3357] | 8.07
AAAAATAAATAAGACACACACAAAAAAAAAAAAAAA [CACACA_site1432] | 6.27
AAATATTTTTAGAGTGCATGTAATAAAAATATAATG [TGCATGCA_site19] | 7.57
ATACAACTAATAAGTAGTACAATATACATATATTAT [XGTACX_site7086] | 6.52
AAATAATATATTCTATATAATAAATTATAAATATAA [GTGCAC_negctrl_site558] | 5.77
ATATATATATATATATATATATATATATATTATATA [XGTACX_negctrl_site48] | 9.21
ATATGACTGTTCATTTGTACGTATAATTATATACGT [XGTACX_site3372] | 6.62
AAAAAAAATGAAAGGTGTACACATACAAACATAGAA [XGTACX_site3517] | 7.69

Sequence | gcPBM binding intensity (ln)
TTTTTTTTTTTTTTTTATTTATATATATATATATAT [CACACA_negctrl_site582] | 8.87
GTTTTATAAAAAGGCGCACACATATACATAAATATA [CACACA_site1864] | 7.08
AAAAAGAAAATATATACACACCAAAAAAAAAAAAAA [CACACA_site5698] | 6.17
GATAAAGTACTTTATACACACAAATATTTATATATA [CACACA_site3974] | 6.7
TAAATACAAAAATGCACACGAAAAGTAATATATATA [CACACA_site6151] | 9.62
TCAAATTACTAAAATACACACATATTATAGATATAT [CACACA_site7233] | 6.47
TGTATATATAATAAAACACACATTTTTAATGTGCTC [CACACA_site1437] | 6.3
GAACTTTACAACCCAACACACAAAAAAGAAAAGAAA [CACACA_site1717] | 6.33
ATATGTTCATTTAAAAGTACTTAATATAACATTTTT [XGTACX_site3332] | 6.45
AATAGGAAAAGAAAAGCACACACATAAATAAATATA [CACACA_site8062] | 6.7
ATTGGTGTATGTTTATGTACTTATCACAATTATGAA [XGTACX_site7055] | 6.72
TAATATGACATAAGGGGTACTATATATATATATATT [XGTACX_site386] | 6.68
AAACATTTACTATATTGTACTTAAGATCTTATCGTA [XGTACX_site3919] | 6.2
TATTTTAACATGTTTTCAAAAATAAAACATATAAAT [CACACA_negctrl_site1598] | 6.03
ATAATAAGCAGACACACACACACAAAAAAAAAAAAA [CACACA_site6477] | 6.46
ATATAAATTTAATACACACCCAAAAAAAAAAAAAAA [CACACA_site3750] | 6.31
TAAATAAATACATACACACACATACAGATATATATA [CACACA_site5690] | 6.89
TATGCTTTGATGAAGACACACATATAGAAGCGTATT [CACACA_site1925] | 6.21
CGCCCACAGATATATACACACATATATAAATAAATA [CACACA_site6877] | 7.03
TACTTTTATAAAAATTGTACAAAAAAAAAAAAAAAA [XGTACX_site2266] | 6.37
TATGTTATAAAATATATATTATAATATGTATATATA [XGTACX_negctrl_site233] | 6.26
AAAACTATTTCTTTCAGTACATATTTGGACTTATAT [XGTACX_site4977] | 6.12
